Measurements taken from a collection of fitness landscapes (doi:10.1016/j.celrep.2020.107928).
The full ranking holds about 81,000 sequences; the median of “one-hybrid fitness for binding NBS DNA” is about -0.1, and the highest 2% start at about 0.36. Some of the results follow.

B1: Caulobacter ParB omega fusion; a variant is named by its letters at X, in order, B8GW30 (parent)
chain: MESVVVGEPGMSEGRRGLGRGLSALLGEVDAAPAQAPGEQLGGSREAPIEILQRNPDQPRRTFREEDLEDLSNSIREKGVLQPILVRPSPDTAGEYQIVAGERAWRAAQRAGLKTVPIMVRELDDLAVLEIGIIENVQRADLNVLEEALSYKVLMEKFERTQENIAQTIGKSXSHVANXMRLLXLPDEVQSYLVSGELTAXHARAIAAAADPVALAKQIIEGGLSVRETEALARKAPNLSAGKSKGGRPPRVKDTDTQALESDLSSVLGLDVSIDHRGSTGTLTITYATLEQLDDLCNRLTRGI

Variants of: B1
Experiment: one-hybrid fitness for binding NBS DNA (the Noc-binding site; scaled: cognate 1, non-cognate 0); higher = stronger binding
Conditions: with NBS DNA site
Summary of the method: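 The reporter was HIS3, with the binding site 19 bp from the promoter, in E. coli USO used for bacterial one-hybrid selection of Caulobacter ParB libraries with four specificity codons randomised. Growth was on M9 lacking histidine, with 0.1 mM IPTG and 5 mM 3-AT, for 48 hours at 37°C. Illumina sequencing covered plasmids before and after selection; three replicate libraries were pooled and variants with under 10 reads dropped. A fitness score is the log change in variant-to-wild-type read ratio, rescaled to the cognate and non-cognate references.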

Variant | one-hybrid fitness for binding NBS DNA
PPCY | ≤ 0.2
NDIR | ≤ 0.2
KQKL | ≤ 0.2
IGEG | ≤ 0.2
DWSL | ≤ 0.2
TSAI | ≤ 0.2
VECR | ≤ 0.2
HCRA | ≤ 0.2
NQYS | ≤ 0.2
ACAM | ≤ 0.2
GMRS | ≤ 0.2
ILMR | ≤ 0.2
WLKD | ≤ 0.2
PNQF | ≤ 0.2
VFAR | ≤ 0.2
QYTG | ≤ 0.2
NLGG | ≤ 0.2
YLVG | ≤ 0.2
YVQT | ≤ 0.2
PMQC | ≤ 0.2
LWMR | ≤ 0.2
MRAT | ≤ 0.2
CELS | ≤ 0.2
GLSK | ≤ 0.2

Variant | one-hybrid fitness for binding NBS DNA
TSCI | ≤ 0.2
EAHG | ≤ 0.2
ANVV | ≤ 0.2
DDRC | ≤ 0.2
VSDI | ≤ 0.2
PNLA | ≤ 0.2
QMMS | 0.333
YKTC | ≤ 0.2
CLDW | ≤ 0.2
WTSR | ≤ 0.2
VLQT | ≤ 0.2
CYVC | ≤ 0.2
PHYK | ≤ 0.2
CSFT | ≤ 0.2
LLRP | ≤ 0.2
EVKP | ≤ 0.2
AADW | ≤ 0.2
RRPT | 0.694
YGPY | ≤ 0.2
RDAL | ≤ 0.2
MFST | ≤ 0.2
ITME | ≤ 0.2
STNF | ≤ 0.2
CGKT | ≤ 0.2

Variant | one-hybrid fitness for binding NBS DNA
YGLW | ≤ 0.2
CNCT | ≤ 0.2
ACTI | ≤ 0.2
NAWR | ≤ 0.2
CKSC | ≤ 0.2
VHVS | ≤ 0.2
RLEC | ≤ 0.2
QINL | ≤ 0.2
QKFK | ≤ 0.2
MKTG | ≤ 0.2
VLTF | ≤ 0.2
PKVY | ≤ 0.2
LYGL | ≤ 0.2
MESV | ≤ 0.2
RIQM | ≤ 0.2
DKQV | ≤ 0.2
RMDH | ≤ 0.2
VLGD | ≤ 0.2
SSLI | ≤ 0.2
TFDM | ≤ 0.2
CCIR | ≤ 0.2
NFTH | ≤ 0.2
YPHT | ≤ 0.2
MVRS | ≤ 0.2

Variant | one-hybrid fitness for binding NBS DNA
KDAS | ≤ 0.2
EYNA | ≤ 0.2
MVWS | ≤ 0.2
MPLS | ≤ 0.2
SAES | ≤ 0.2
TLWH | ≤ 0.2
YAST | ≤ 0.2
YSSP | ≤ 0.2
PRMW | ≤ 0.2
HCLV | ≤ 0.2
PIKW | ≤ 0.2
AMAA | ≤ 0.2
STEF | ≤ 0.2
TAHY | ≤ 0.2
QLTR | 0.487
KLSW | ≤ 0.2
RVPQ | ≤ 0.2
RLII | ≤ 0.2
PHRQ | ≤ 0.2
GTNR | ≤ 0.2
RCGC | 0.236
TSHR | ≤ 0.2
SKGF | ≤ 0.2
SAPC | ≤ 0.2

Variant | one-hybrid fitness for binding NBS DNA
WLDT | ≤ 0.2
MKSL | ≤ 0.2
LIKR | ≤ 0.2
SFDE | ≤ 0.2
TKNG | ≤ 0.2
GLQT | ≤ 0.2
GGTR | ≤ 0.2
DRKT | ≤ 0.2
DKTR | ≤ 0.2
ILTW | ≤ 0.2
NWLT | ≤ 0.2
CMYT | ≤ 0.2
VVTL | ≤ 0.2
RKVW | ≤ 0.2
TRDS | ≤ 0.2
RTRW | ≤ 0.2
SGCR | ≤ 0.2
HLQM | ≤ 0.2
NTPC | ≤ 0.2
CTCN | ≤ 0.2
RPFG | ≤ 0.2
ESLA | ≤ 0.2
RDCS | ≤ 0.2
WGYR | ≤ 0.2

Variant | one-hybrid fitness for binding NBS DNA
SLHF | ≤ 0.2
LWTL | ≤ 0.2
WTLA | ≤ 0.2
QMHT | 0.497
VELS | ≤ 0.2
IKGW | ≤ 0.2
MGLG | ≤ 0.2
CSLD | ≤ 0.2
MTDP | ≤ 0.2
GHGC | ≤ 0.2
SHLG | ≤ 0.2
MCHV | ≤ 0.2
DTFL | ≤ 0.2
IAEG | ≤ 0.2
LTVL | ≤ 0.2
TFLC | ≤ 0.2
QMTG | ≤ 0.2
PFKH | ≤ 0.2
RDRA | ≤ 0.2
PWFR | ≤ 0.2
RLAR | 0.42
HYNK | ≤ 0.2
LIRI | ≤ 0.2
QPDT | ≤ 0.2

Variant | one-hybrid fitness for binding NBS DNA
ICAR | ≤ 0.2
QQEF | ≤ 0.2
VMYE | ≤ 0.2
NECG | ≤ 0.2
MNMY | ≤ 0.2
SHTI | ≤ 0.2
VSGQ | ≤ 0.2
RCDV | ≤ 0.2
NLHL | ≤ 0.2
LPGV | ≤ 0.2
TEST | ≤ 0.2
EHHI | ≤ 0.2
KHTT | ≤ 0.2
ANDG | ≤ 0.2
RVRA | 0.308
SMPI | ≤ 0.2
DGPG | ≤ 0.2
REPW | ≤ 0.2
PARR | ≤ 0.2
NHHC | ≤ 0.2
AMRN | ≤ 0.2
HNCF | ≤ 0.2
YHIS | ≤ 0.2
GMFR | ≤ 0.2

Variant | one-hybrid fitness for binding NBS DNA
NPYS | ≤ 0.2
HARI | ≤ 0.2
PPDV | ≤ 0.2
VDTC | ≤ 0.2
RPST | ≤ 0.2
TYSG | ≤ 0.2
DDTC | ≤ 0.2
QYLM | ≤ 0.2
CMTA | ≤ 0.2
EHTM | ≤ 0.2
GQVV | ≤ 0.2
VITR | ≤ 0.2
KRNR | 0.661
YTQF | ≤ 0.2
PKMQ | ≤ 0.2
LTLA | ≤ 0.2
MKMS | ≤ 0.2
FVNV | ≤ 0.2
QMAA | 0.339
ALAK | ≤ 0.2
GAQH | ≤ 0.2
CESS | ≤ 0.2
WSYN | ≤ 0.2
KVSG | ≤ 0.2

Variant | one-hybrid fitness for binding NBS DNA
ATHK | ≤ 0.2
TQND | ≤ 0.2
SPCI | ≤ 0.2
IWSR | ≤ 0.2
ELNY | ≤ 0.2
GYDT | ≤ 0.2
PAPP | ≤ 0.2
VPGC | ≤ 0.2
NSLD | ≤ 0.2
VWGI | ≤ 0.2
CQLT | ≤ 0.2
PMVY | ≤ 0.2
RIHC | ≤ 0.2
SQDA | ≤ 0.2
PGHG | ≤ 0.2
QHAS | 0.348
MFTG | ≤ 0.2
KLRG | ≤ 0.2
CQDR | ≤ 0.2
RNIE | ≤ 0.2
PKGV | ≤ 0.2
HFTR | ≤ 0.2
NENG | ≤ 0.2
ARLE | ≤ 0.2

Variant | one-hybrid fitness for binding NBS DNA
NEIG | ≤ 0.2
AAND | ≤ 0.2
ARKE | ≤ 0.2
ILVT | ≤ 0.2
IFES | ≤ 0.2
QTCW | ≤ 0.2
MMNT | ≤ 0.2
LVRF | ≤ 0.2
IMYR | ≤ 0.2
AHYR | ≤ 0.2
MSDR | ≤ 0.2
NLYS | ≤ 0.2
KDQT | ≤ 0.2
PCNE | ≤ 0.2
RYPA | ≤ 0.2
NKGV | ≤ 0.2
GRMK | ≤ 0.2
GCWL | ≤ 0.2
IRHI | ≤ 0.2
DSWN | ≤ 0.2
KYNE | ≤ 0.2
PVME | ≤ 0.2
ARIV | ≤ 0.2
QLYL | ≤ 0.2

Variant | one-hybrid fitness for binding NBS DNA
RIFF | ≤ 0.2
YECR | ≤ 0.2
FRCN | ≤ 0.2
VNMN | ≤ 0.2
KVNN | ≤ 0.2
NFLI | ≤ 0.2
PTLS | ≤ 0.2
TARW | ≤ 0.2
YHVR | ≤ 0.2
VNPL | ≤ 0.2
NNTD | ≤ 0.2
MTPS | ≤ 0.2
RDPL | ≤ 0.2
HRQC | ≤ 0.2
CVTK | ≤ 0.2
RDQA | ≤ 0.2
DKNL | ≤ 0.2
YHNQ | ≤ 0.2
QMRA | 0.569
RCMP | ≤ 0.2
YCLV | ≤ 0.2
PKTV | ≤ 0.2
KTLW | ≤ 0.2
KEAS | ≤ 0.2

Variant | one-hybrid fitness for binding NBS DNA
GSSY | ≤ 0.2
YEQT | ≤ 0.2
DNAT | ≤ 0.2
AHYA | ≤ 0.2
QVPL | ≤ 0.2
GPGK | ≤ 0.2
MKFG | ≤ 0.2
RQAC | ≤ 0.2
SRDN | ≤ 0.2
PYKR | ≤ 0.2
YITG | ≤ 0.2
ERRC | ≤ 0.2
QTFQ | ≤ 0.2
RGYN | ≤ 0.2
VGLY | ≤ 0.2
THDW | ≤ 0.2
VKTY | ≤ 0.2
PCRY | ≤ 0.2
RTPT | 0.201
HVAI | ≤ 0.2
ESLH | ≤ 0.2
TYRN | ≤ 0.2
APCR | ≤ 0.2
RYTL | ≤ 0.2

Variant | one-hybrid fitness for binding NBS DNA
VRHC | ≤ 0.2
ESWS | ≤ 0.2
VDAC | ≤ 0.2
QACS | 0.272
ICFG | ≤ 0.2
PTRA | ≤ 0.2
VIIC | ≤ 0.2
CYMQ | ≤ 0.2
YLRF | ≤ 0.2
TSPP | ≤ 0.2
QTQI | ≤ 0.2
QCWS | 0.301
PAFG | ≤ 0.2
NVFR | ≤ 0.2
RTQC | ≤ 0.2
QTDF | ≤ 0.2
TLYG | ≤ 0.2
AQWR | ≤ 0.2
